Assay results from the supplement of paper PMC11417369.
± gives the standard deviation of the averaged measurements. This is one part of the list.

system: PfAP2-LT AP2 domain (GST-tagged); experiment: gcPBM binding intensity (ln(normalized median fluorescence intensity)); higher = stronger DNA binding
How it was run: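 DNA-binding domains from P. falciparum, fused to GST and produced in E. coli, were put on an Agilent 4 × 180k double-stranded probe array for 1 h in 1× PBS holding 1% milk, 0.2 mg/ml BSA, 0.5% salmon testes DNA and 0.03% Triton X-100. Probes were primer-extended, 36 bp long and drawn from intergenic genomic regions, with negative controls included. After Alexa488 anti-GST antibody detection and a 488 nm scan, binding intensity was set as the highest Masliner-normalised natural-log median intensity across replicate spots of either probe orientation.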

“AGAGAGAGAAATACAAGTACATGTGAAACCAATCTA [XGTACX_site2767]” and “AAAAAAAAAAAAATTGCACACAAAAAAAAAAAAAAA [CACACA_site8644]” are within error of each other in “gcPBM binding intensity (ln)” value: 9.04 ± 0.46 for the first, 8.95 ± 0.4 for the second.

“TTCAACATAATATGCACACAAAAATTATGGAACGAA [CACACA_site2111]” and “AAAAAAAACAAATACACACGCACACCGAAAAAAAAA [CACACA_site803]” are within error of each other in “gcPBM binding intensity (ln)” value: 9.22 ± 0.43 for the first, 9.6 ± 0.39 for the second.

“ATATAATAGTATATATGTACATATATTTAAATACTA [XGTACX_site1135]” and “TATATTATAATTTGAAGTACATTTTAAATTAACTAA [XGTACX_site1013]” are within error of each other in “gcPBM binding intensity (ln)” value: 8.82 ± 0.4 for the first, 8.17 ± 0.48 for the second.

“ATATATGTATATATTTGTACATATAATATTTTTTAA [XGTACX_site6345]” and “ATTTGTAATTTATTCAAACACACAATTTGGACCTTT [CACACA_site1062]” are within error of each other in “gcPBM binding intensity (ln)” value: 8.61 ± 0.4 for the first, 8.88 ± 0.43 for the second.

“TAATTAAGCATAAATATAATTTTATATTTTATTTCC [XGTACX_negctrl_site321]” and “TGCAGTCTGGAGAAAAGTACATAGTATCTGGTAGCT [XGTACX_site2547]” are within error of each other in “gcPBM binding intensity (ln)” value: 8.3 ± 0.37 for the first, 8.82 ± 0.49 for the second.

Going from “TAACATAGCAATGTTTCACACACAAGAAAAAATACA [CACACA_site8747]” to “TTTGTGTGTGCGTGTGCATGTTGTTTTTTTCTATAA [TGCATGCA_site17]”, the “gcPBM binding intensity (ln)” value rises from 9.21 ± 0.35 to 9.725 ± 0.078.

“AATATAATAACTTATTGTACGAAATTATATCACCTT [XGTACX_site7883]” and “TATTCACATACAGAAACACACACATATATATAAATT [CACACA_site9232]” are within error of each other in “gcPBM binding intensity (ln)” value: 8.74 ± 0.43 for the first, 9.31 ± 0.32 for the second.

“AATTATTTATTGAGAGTGCAACAAATTATTTCAAAT [GTGCAC_site9461]” and “ACATTTTAAATACGATGTACTTGAGTTTTTTTTAAA [XGTACX_site5833]” are within error of each other in “gcPBM binding intensity (ln)” value: 8.44 ± 0.49 for the first, 8.43 ± 0.4 for the second.

“TTTTTTTGCATGAGCAATAAAAAAGGCTTGTTCAAA [CACACA_negctrl_site1615]” and “TTATATATTAAGAAATGTACGAAAAAAAAAATTATA [XGTACX_site3893]” are within error of each other in “gcPBM binding intensity (ln)” value: 8.05 ± 0.3 for the first, 8.4 ± 0.59 for the second.

“AAGATGATAAAATATGTACACACAGTTTATACATTT [CACACA_site9341]” and “TATAATAATAATAATAATAATAATAATAATAATAAT [CACACA_negctrl_site905]” are within error of each other in “gcPBM binding intensity (ln)” value: 8.93 ± 0.47 for the first, 8.66 ± 0.35 for the second.

“CGCATAAAGACAAGAACACACATATAGATTGTAGTA [CACACA_site3693]” and “AAAAAAAATTATATATGTACTTATTAATCCTTTTAT [XGTACX_site1387]” are within error of each other in “gcPBM binding intensity (ln)” value: 9.02 ± 0.44 for the first, 8.56 ± 0.44 for the second.

“TACATATATGATAAAAGTACATATAAATATACATAA [XGTACX_site3804]” and “GAAATAAAAGATGGTTGTACACCGTTTTCTCATATA [XGTACX_site5368]” are within error of each other in “gcPBM binding intensity (ln)” value: 8.74 ± 0.45 for the first, 8.73 ± 0.38 for the second.

“TATATGAATAAACATTGTACGTAAATATTAACTATC [XGTACX_site543]” and “AAAGAGAACATAAGTACACACATGTTCTTTTAGTAA [CACACA_site2824]” are within error of each other in “gcPBM binding intensity (ln)” value: 8.8 ± 0.38 for the first, 8.95 ± 0.56 for the second.

“AAAGTAAAAACACATACATGCATATACACATATAAC [TGCATGCA_site341]” and “AAAAAAAAAAAAAAAACACACAAAAGCAAGAAAAAC [CACACA_site3198]” are within error of each other in “gcPBM binding intensity (ln)” value: 9.16 ± 0.46 for the first, 9.23 ± 0.52 for the second.

“ATAAATATGTATTGCTGTACATATATATAAATTATC [XGTACX_site8411]” and “AATAGGAAAACCTATACACACTTTAAAAAAAATATA [CACACA_site4977]” are within error of each other in “gcPBM binding intensity (ln)” value: 8.76 ± 0.41 for the first, 8.71 ± 0.49 for the second.

“TTTCTTATTTTTTTCACACACTAAACATTTCAAATG [CACACA_site5259]” and “TCAATAAGATTATAAAGTACTTTTGAAGATATTATA [XGTACX_site7489]” are within error of each other in “gcPBM binding intensity (ln)” value: 8.91 ± 0.54 for the first, 8.36 ± 0.43 for the second.

Compared with “AAATAAATAAATAAATGTACACATATATATATATAT [XGTACX_site7787]”, “AAATATTTAAATATTATGTATGATTATATATATATA [CACACA_negctrl_site590]” is lower in “gcPBM binding intensity (ln)” value: 9.575 ± 0.092 for the first, 8.56 ± 0.35 for the second.

“TATATATTTAGTTAGTGTACAAGTTATTTAGTAGTT [XGTACX_site5133]” and “AAAAAAATAATGTATATATAAATTTATTTACATATG [GTGCAC_negctrl_site107]” are within error of each other in “gcPBM binding intensity (ln)” value: 8.69 ± 0.44 for the first, 8.41 ± 0.47 for the second.

“TCTTTTAACAAATAATAAGCTAATTTATATTATTAT [GTGCAC_negctrl_site655]” and “TAAAAAATAAGATATACACACATATATTTATTTATA [CACACA_site7158]” are within error of each other in “gcPBM binding intensity (ln)” value: 8.38 ± 0.57 for the first, 8.69 ± 0.44 for the second.

“CATATTTTCTTGTGTACACATTTATTTTATACTATA [CACACA_site6032]” and “CAAATAAATTAAAGGTGTACTTTTATAGTTACGACA [XGTACX_site3926]” are within error of each other in “gcPBM binding intensity (ln)” value: 9.29 ± 0.47 for the first, 8.56 ± 0.51 for the second.

Compared with “TAAAAAATTTTCGCGTGTACGCAAGAAAAAAAAAAT [XGTACX_site3058]”, “TTTTTGCCATATTACACACACACATGGAAACCCCCT [CACACA_site4994]” is higher in “gcPBM binding intensity (ln)” value: 8.84 ± 0.42 for the first, 9.68 ± 0.36 for the second.

“TTATAGAGCTTATTCACACATACATATGTATTTATA [CACACA_site5775]” and “TAAAACATATAAAGGTGTACGCCTTTTTGTATCAAT [XGTACX_site6064]” are within error of each other in “gcPBM binding intensity (ln)” value: 8.95 ± 0.45 for the first, 8.65 ± 0.47 for the second.

“ATAATAAAAATATACTGTACATTTGTAAATTCTTTT [XGTACX_site4655]” and “TATATTTGTTGACACACACACAAAAAAAAAAAAAAA [CACACA_site7211]” are within error of each other in “gcPBM binding intensity (ln)” value: 8.66 ± 0.44 for the first, 9.23 ± 0.54 for the second.

“GTCTACTACACTAAATGTACAAGAAAAAAGAAAAAA [XGTACX_site4660]” and “AAGAGTAAAATATGGTTGCACTAAAAATATATATTT [GTGCAC_site9484]” are within error of each other in “gcPBM binding intensity (ln)” value: 8.55 ± 0.58 for the first, 8.67 ± 0.54 for the second.

“CTTAATATATGTGGCACACATGTGGAGTCCTATTAA [CACACA_site4281]” and “AAAAAAATATTAATGTGTACATAATAATAACATATA [XGTACX_site8319]” are within error of each other in “gcPBM binding intensity (ln)” value: 8.99 ± 0.37 for the first, 8.78 ± 0.55 for the second.

“TATAAAATTCTGACTTGTACATGTGAAAAATAATTA [XGTACX_site1396]” and “TATATATATATATAATGTACACATTTTTATAACTAT [XGTACX_site5714]” are within error of each other in “gcPBM binding intensity (ln)” value: 8.54 ± 0.43 for the first, 9.02 ± 0.35 for the second.

“GCGTTGTTTTTAAAAAGTACATTTTTATATAAGTTA [XGTACX_site8780]” and “AAAATACAATTTCTAGCACACAAAATATTATTATAA [CACACA_site9056]” are within error of each other in “gcPBM binding intensity (ln)” value: 8.54 ± 0.46 for the first, 8.7 ± 0.43 for the second.

“AAAGATGGAAAAAAAAATTTGTGTGTTGAAAGATAT [GTGCAC_negctrl_site19]” and “TTTGTTTTTTTGAGAGTGCAATATATATAAAAAGGG [GTGCAC_site9691]” are within error of each other in “gcPBM binding intensity (ln)” value: 8.85 ± 0.61 for the first, 8.35 ± 0.3 for the second.
